Assay results published in the RNAGym collection of RNA variant scans (doi:10.1093/nar/gkz1192).
Read counts are not given, so values of variants with three or more changes are uncertain.

B1: CPEB3 Ribozyme (parent)
chain: UAACAGGGGGCCACAGCAGAAGCGUUCACGUCGCAGCCCCUGUCAGAUUCUGGUGAAUCUGCGAAUUCUGCUGUAUAUCUC

Variants of: B1
Assay: self-cleavage, relative activity (ratio to wild type); higher = more cleavage; in vitro, sequencing
In short: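 Libraries of CPEB3 self-cleaving ribozyme mutants came from rounds of error-prone PCR and carried barcodes, which DNA sequencing matched to variants. In vitro transcription used T7 RNA polymerase at 37°C for 5 hours, with a further 15 min in DNase I before EDTA stopped the reaction; the ribozymes cleaved during both steps. The RNA was reverse transcribed with template switching and sequenced on Illumina. Relative activity is the cleaved/total read fraction of a variant divided by that of the unmutated ribozyme, averaged over three batches with at least 5 reads.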

| Variant | self-cleavage |
| --- | --- |
| UAACAGGGGGCCACAGCAGAAGCGUUCACGUCGCAGCCCCUGUCAGAUUCUGACGAAUCUGCGAACUCUGCUGCAUAUCUC [G53A U54C U66C U74C] | 0.39 |
| UAACAGGGGGCCACAGCAGAAGCGUUCACGUCGCAGCCCCUGUCAGAUUCUGGCGUAUCUGUGAAUUCCGCUGUAUAUCUC [U54C A56U C62U U69C] | 0.22 |
| UAACAGGGGGCCACAGCAGAAGCGUUCACGUCGCAGCCCCUGUCAGAUUCUGGCGAAUCAGCGAAAUCUGCAGUAUAUCUC [U54C U60A U66A U72A] | 0.26 |
| UAACAGGGGGCCACAGCAGAAGCGUUCACGUCGCAGCCCCUGUCAGAUUCUGCUGAGUCUGCGACGUCUGCUGUAUAUCUC [G53C A57G A65C U66G] | 0.11 |
| UAACAGGGGGCCACAGCAGAAGCGUUCACGUCGCAGCCCCUGUCAGAUUCUGGAGAAUCAGCGAAUUCUGCUGUAUAUCCC [U54A U60A U80C] | 0.97 |
| UAACAGGGGGCCACAGCAGAAGCGUUCACGUCGCAGCCCCUGUCAGAUUCUGCUGAAGCUGCGAAUUCUGCAGUAUAUCUC [G53C U58G U72A] | 0.17 |
| UAACAGGGGGCCACAGCAGAAGCGUUCACGUCGCAGCCCCUGUCAGAUUCUUGUGAAUCUGCUGAUUUUGCUGUAUAUCUC [G52U G63U A64G C68U] | 0.49 |
| UAACAGGGGGCCACAGCAGAAGCGUUCACGUCGCAGCCCCUGUCAGAUUCUUGGGAGUCUGCGAAUUCUGCUGUAUAUCUC [G52U U54G A57G] | 0.92 |
| UAACAGGGGGCCACAGCAGAAGCGUUCACGUCGCAGCCCCUGUCAGAUUCUAGUGAAUCUGCGAAUUCUGCUGCUUAUCCC [G52A U74C A75U U80C] | 1.19 |
| UAACAGGGGGCCACAGCAGAAGCGUUCACGUCGCAGCCCCUGUCAGAUUCUGGCGGAUCUGCGAAUUCUGCUGUAUAUCUU [U54C A56G C81U] | 0.8 |
| UAACAGGGGGCCACAGCAGAAGCGUUCACGUCGCAGCCCCUGUCAGAUUCUGACGAAUCUGCGAAUUCAGCUGUAUAUCUC [G53A U54C U69A] | 0.8 |
| UAACAGGGGGCCACAGCAGAAGCGUUCACGUCGCAGCCCCUGUCAGAUUCUGGAGAAUCUAUGAAUUCUGCUGUAUAUCUC [U54A G61A C62U] | 0.25 |
| UAACAGGGGGCCACAGCAGAAGCGUUCACGUCGCAGCCCCUGUCAGAUUCUAGUGAAUCUGCGAAUUCUACUGCAUAUCCC [G52A G70A U74C U80C] | 0.76 |
| UAACAGGGGGCCACAGCAGAAGCGUUCACGUCGCAGCCCCUGUCAGAUUCUAGUGAAUCUGCGAAUUCUGCUGUACUUCUC [G52A U76C A77U] | 1.34 |
| UAACAGGGGGCCACAGCAGAAGCGUUCACGUCGCAGCCCCUGUCAGAUUCUGGCGGAUCUGCGUAUUCUGCUGUAUAUCUC [U54C A56G A64U] | 0.49 |
| UAACAGGGGGCCACAGCAGAAGCGUUCACGUCGCAGCCCCUGUCAGAUUCUGGCGAACCUGCGAAUUCUGCCGUAUAUCUC [U54C U58C U72C] | 0.29 |
| UAACAGGGGGCCACAGCAGAAGCGUUCACGUCGCAGCCCCUGUCAGAUUCUAGUCAAUCUGCGAAUUCAGCUGUAUAUCUC [G52A G55C U69A] | 0.67 |

| Variant | self-cleavage |
| --- | --- |
| UAACAGGGGGCCACAGCAGAAGCGUUCACGUCGCAGCCCCUGUCAGAUUCUGAUGAAUCUGCGAAUCCUGCUGUAUAUUUC [G53A U67C C79U] | 0.52 |
| UAACAGGGGGCCACAGCAGAAGCGUUCACGUCGCAGCCCCUGUCAGAUUCUGGCGUAUCCGCGAAUUCUGCUGUAAAUCUC [U54C A56U U60C U76A] | 0.13 |
| UAACAGGGGGCCACAGCAGAAGCGUUCACGUCGCAGCCCCUGUCAGAUUCUGGCGGAUCAGCGAAUUCUGCUGUGUAUCUU [U54C A56G U60A A75G C81U] | 0.21 |
| UAACAGGGGGCCACAGCAGAAGCGUUCACGUCGCAGCCCCUGUCAGAUUCUGGAGAAUAUGCGAAUUCUGCUGUAAAUCCC [U54A C59A U76A U80C] | 0.28 |
| UAACAGGGGGCCACAGCAGAAGCGUUCACGUCGCAGCCCCUGUCAGAUUCUGAUGAAUCUGCGAAUUCCGCUGAAUACCUC [G53A U69C U74A U78C] | 0.43 |
| UAACAGGGGGCCACAGCAGAAGCGUUCACGUCGCAGCCCCUGUCAGAUUCUGGCGAAUCUGCGAGUUCUGCUGCAUACCUC [U54C A65G U74C U78C] | 0.85 |
| UAACAGGGGGCCACAGCAGAAGCGUUCACGUCGCAGCCCCUGUCAGAUUCUGUUGAGUCUGCGGAUUCUGCUGUAUAUCUC [G53U A57G A64G] | 1.11 |
| UAACAGGGGGCCACAGCAGAAGCGUUCACGUCGCAGCCCCUGUCAGAUUCUUGUGAGUCUGCGGAUUCUGCUGUAUAUCUC [G52U A57G A64G] | 0.92 |
| UAACAGGGGGCCACAGCAGAAGCGUUCACGUCGCAGCCCCUGUCAGAUUCUUGUGAAUCUGCGGACUCUGCUGUAUAACUC [G52U A64G U66C U78A] | 0.32 |
| UAACAGGGGGCCACAGCAGAAGCGUUCACGUCGCAGCCCCUGUCAGAUUCUGGCGAGUCUGCGAAUUCAGCUGUAUAUCUC [U54C A57G U69A] | 0.29 |
| UAACAGGGGGCCACAGCAGAAGCGUUCACGUCGCAGCCCCUGUCAGAUUCUCGUGAAUCCGCGUAUUCUGCUGUAUACCUC [G52C U60C A64U U78C] | 0.24 |
| UAACAGGGGGCCACAGCAGAAGCGUUCACGUCGCAGCCCCUGUCAGAUUCUGGAGAAUCUGCGAAUUCCGCUGUAUCACUC [U54A U69C A77C U78A] | 0.68 |
| UAACAGGGGGCCACAGCAGAAGCGUUCACGUCGCAGCCCCUGUCAGAUUCUGGAGAAUCCGAGAAUUCUGCUGUAUAUCUC [U54A U60C C62A] | 0.32 |
| UAACAGGGGGCCACAGCAGAAGCGUUCACGUCGCAGCCCCUGUCAGAUUCUGGAGAAUCUGCGAAUCCUGCCGUAUAUCUC [U54A U67C U72C] | 0.39 |
| UAACAGGGGGCCACAGCAGAAGCGUUCACGUCGCAGCCCCUGUCAGAUUCUGGCGAGUCCGCGAAUUCUGCUGUAUAUCUC [U54C A57G U60C] | 0.34 |
| UAACAGGGGGCCACAGCAGAAGCGUUCACGUCGCAGCCCCUGUCAGAUUCUGGAGGGUCUGCGAAUUCUGCUGUAUAUCUC [U54A A56G A57G] | 0.32 |
| UAACAGGGGGCCACAGCAGAAGCGUUCACGUCGCAGCCCCUGUCAGAUUCUUGUGAAUCUGCUAAUUCUGCUGUAUAUCAC [G52U G63U U80A] | 1.21 |
